Results as given in PubChem BioAssay (Tox21).
This list was built around the results that the source calls inconclusive (neither active nor inactive); the mix of calls is not that of the screen. Potencies of inconclusive entries are left out as doubtful fits. Active and inactive are the calls of the source. Calls follow the shape of the dose curve; as a rule, active = well fitted activation curve with a large enough effect in the signal ratio in the repeat runs (not every such curve was filed as active); inconclusive = weak or mixed curves, or effect the other way; inactive = no such curve, though single readings can be large or run the other way; the % refers to the signal ratio. Bridge positions count the residues as written; N and C are the ends. Square brackets hold non-standard residues; d marks the D form. Peptide text beside a SMILES is read from it. * marks the point of attachment. Dab(CH2SO3H) = N[C@@H](CCNCS(=O)(=O)O)C(=O)O; X2 = CC[C@@H](C)CCCCC(=O)*; Dab = NCC[C@H](N)C(=O)O

The molecules below were run against Peroxisome proliferator-activated receptor gamma (Homo sapiens) (UniProt P37231) (assay: qHTS assay to identify small molecule agonists of the peroxisome proliferator-activated receptor gamma (PPARg) signaling pathway (AID 743094)). Conditions: HEK293H PPARg-UAS-bla, beta-lactamase FRET ratio, 17 h; activation: at 57 µM (top of the series) unless noted.
Chain of UniProt P37231 (P37231 whole entry, looked up): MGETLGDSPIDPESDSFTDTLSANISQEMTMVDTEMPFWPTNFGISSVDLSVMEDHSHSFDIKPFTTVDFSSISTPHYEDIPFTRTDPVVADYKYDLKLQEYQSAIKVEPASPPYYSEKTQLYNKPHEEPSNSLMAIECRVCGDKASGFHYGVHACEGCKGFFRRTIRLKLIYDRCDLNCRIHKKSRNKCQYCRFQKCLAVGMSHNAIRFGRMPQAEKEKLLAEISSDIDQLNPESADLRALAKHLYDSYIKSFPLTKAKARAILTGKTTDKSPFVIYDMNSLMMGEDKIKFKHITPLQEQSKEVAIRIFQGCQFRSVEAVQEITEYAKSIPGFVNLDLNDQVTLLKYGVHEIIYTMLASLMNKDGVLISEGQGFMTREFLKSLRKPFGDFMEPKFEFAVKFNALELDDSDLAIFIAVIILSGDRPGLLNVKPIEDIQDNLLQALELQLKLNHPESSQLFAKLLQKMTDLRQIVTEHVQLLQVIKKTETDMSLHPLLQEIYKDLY
In short: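 GeneBLAzer PPARg UAS-bla HEK293H cells carrying a stably integrated beta-lactamase reporter were pre-incubated 5 h at 37C, then exposed to compounds in DMSO for 17 h at 37C; LiveBLAzer B/G FRET substrate was added for 1 h at room temperature and fluorescence read.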
% is scaled to controls: 0 for no effect and ±100 for the full control effect; potency is read from the fitted curve at half-maximal effect; tags tell the direction and shape of the fitted curve or compound fluorescence and quenching.

| SMILES | activation | Potency |
| --- | --- | --- |
| CCC(Cc1c(I)cc(I)c(O)c1I)C(=O)O (stereo not given) | inconclusive: -7.36% | – |
| CC#CCC(C)[C@H](O)/C=C/[C@@H]1[C@H]2c3cccc(CCCC(=O)O)c3O[C@H]2C[C@H]1O (stereo not given in full) | inconclusive: 3.41% | – |
| O=[N+]([O-])O[C@@H]1CO[C@H]2[C@@H]1OC[C@@H]2O | – | inactive |
| CC[C@@H](C)CCCCC(=O)N[C@@H](CCNCS(=O)(=O)O)C(=O)N[C@H](C(=O)N[C@@H](CCNCS(=O)(=O)O)C(=O)N[C@H]1CCNC(=O)[C@H]([C@@H](C)O)NC(=O)[C@H](CCNCS(=O)(=O)O)NC(=O)[C@H](CCNCS(=O)(=O)O)NC(=O)[C@H](CC(C)C)NC(=O)[C@@H](CC(C)C)NC(=O)[C@H](CCNCS(=O)(=O)O)NC1=O)[C@@H](C)O (X2-[Dab(CH2SO3H)]T[Dab(CH2SO3H)][Dab][Dab(CH2SO3H)][dL]L[Dab(CH2SO3H)][Dab(CH2SO3H)]T; lactam 4-C) | – | inconclusive [activator, partial curve, poor fit] |
| O=C(CO)[C@@H](O)[C@H](O)[C@@H](O)C(=O)O | – | inactive |
| CCCCCCCC[N+](C)(C)CCCCCCCC | inconclusive: -13.1% | – |
| Cc1cc(-n2c(=O)[nH]c(=O)n(C)c2=O)ccc1Oc1ccc(S(=O)(=O)C(F)(F)F)cc1 | – | inconclusive [rising, partial curve, poor fit] |
| CCOC(=O)c1cc(-c2ccccc2)nc2ccc(C)cc12 | – | inconclusive [activator, partial curve, poor fit] |
| O=C(O)CCC/C=C\C[C@@H]1[C@@H](/C=C/[C@@H](O)COc2cccc(C(F)(F)F)c2)[C@H](O)C[C@@H]1O | – | inactive |
| COC(=O)C1=C(C)NC(C)=C(C(=O)O[C@H]2CCN(Cc3ccccc3)C2)[C@H]1c1cccc([N+](=O)[O-])c1 | inconclusive: -15.9% | – |
